In PubChem BioAssay AID1345082 (National Center for Advancing Translational Sciences (NCATS), 2018):
Among all 94,000 compounds or so, about 4,000 (4.3%) were called active. The inconclusive results got no clear call from the source; some entries with a clear call stand among them for comparison. Calls follow the shape of the dose curve; as a rule, active = well fitted inhibition curve with a large enough effect; inconclusive = small, poorly fitted or top-dose-only effect; inactive = no such curve, though single readings can be large or run the other way. Potencies of inconclusive entries are doubtful fits and often do not repeat.

Test: Cytotoxic Profiling in NIH 3T3 Cell Line of Diverse Libraries Using Quantitative High-Throughput Screening; also: nearly all actives have a fitted effect of over 55% in size
Details: NIH 3T3 viability, CellTiter-Glo ATP luminescence, 48-72 h; series mostly up to 96.7 µM
Outline: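 Cells were seeded at 400 per well, treated with pin-transferred compound, and kept 48 or 72 hr at 37 °C before CellTiter-Glo addition and luminescence imaging of cellular ATP.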
Potency is read from the fitted curve at half-maximal effect; tags tell the direction and shape of the fitted curve.

Question: With `O=c1ncn(Cc2ccccc2)c2ccc(-c3ccccc3)nc12` as the molecule, how does the Potency read?
Answer: inconclusive: 89.1 µM [inhibitor, partial curve, poor fit]

Question: Which Potency does the source give for `CC(C)(C)c1ccc(-c2cc(C[C@H]3CNCC[C@H]3CC(=O)N3CCCCC3)no2)cc1` here?
Answer: active: 35.5 µM

Question: For `CCC1CCCCN1CCCNC(=O)CCc1cc2cc(OC)ccc2[nH]c1=O` (centres undefined), which Potency is on record?
Answer: inactive

Question: For `CCN1CCCCC12Cc1ccccc1CN(C(C)=O)C2` (centres undefined), which Potency is on record?
Answer: inactive

Question: Which Potency does the source give for `Cc1ccc(NC(=O)c2nc3sccn3c2-c2cccc(C(F)(F)F)c2)cc1` here?
Answer: inconclusive: 39.8 µM [inhibitor, partial curve]

Question: For `COc1cccc(OCc2nc3c(n2Cc2ccccc2)C(=O)N(CCOc2ccccc2)CCN3)c1`, which Potency is on record?
Answer: active: 20 µM

Question: For `COc1ccc(Cn2c(C3CCN(C(=O)c4sccc4C)CC3)n[nH]c2=O)cc1`, which Potency is on record?
Answer: inactive

Question: For `O=C(c1ccc2c(c1)OCO2)N1CC(Oc2ccc(F)c(F)c2)C1`, which Potency is on record?
Answer: inconclusive: 56.2 µM [inhibitor, partial curve, poor fit]

Question: Which Potency does the source give for `CC(C)[C@@H]1CN(S(=O)(=O)c2cccc(C#N)c2)C[C@H]1NS(C)(=O)=O` here?
Answer: inconclusive: 39.8 µM [inhibitor, partial curve, poor fit]

Question: Which Potency does the source give for `Cc1nn(CC(=O)N2CCCCCC2)c(=O)c2nc(C(C)C)sc12` here?
Answer: inconclusive: 28.2 µM [inhibitor, partial curve, poor fit]

Question: Which Potency does the source give for `COC(=O)N1CCc2nc(C(C)C)nc(-c3ccc(O)cc3)c2C1` here?
Answer: inactive

Question: Which Potency does the source give for `COC(=O)CNC(=O)c1cn2cc(-c3ccc(OC)cc3)sc2n1` here?
Answer: inconclusive: 100 µM [inhibitor, partial curve, poor fit]

Question: For `COc1ccccc1CN1CC[C@@](C)(O)[C@H](N2CCCC2)C1`, which Potency is on record?
Answer: inconclusive: 50.1 µM [inhibitor, partial curve, poor fit]

Question: For `CN(C)CCN1C(=O)CC[C@]2(C(=O)NCc3cc(F)cc(F)c3)CCCC[C@@H]12`, which Potency is on record?
Answer: inactive

Question: Which Potency does the source give for `COc1ccc(N2CC(c3noc(-c4ccc(C)cc4C)n3)CC2=O)cc1` (centres undefined) here?
Answer: inconclusive: 44.7 µM [inhibitor, partial curve, poor fit]

Question: With `COc1ncccc1Nc1cnc2ccc(N(C)C)nn12` as the molecule, how does the Potency read?
Answer: inconclusive: 39.8 µM [inhibitor, full curve, poor fit]

Question: For `COCCN1Cc2sccc2N(C[C@@H](O)COCc2ccccc2)CCC1=O`, which Potency is on record?
Answer: inconclusive: 50.1 µM [inhibitor, single point]

Question: For `Cc1nn(-c2ccccc2)c2c1C(C)N(C1CCN(C(=O)C3CC3)C1)C2=O` (centres undefined), which Potency is on record?
Answer: inconclusive: 50.1 µM [inhibitor, partial curve, poor fit]

Question: Which Potency does the source give for `COc1ccc(Cn2c(=O)c(C(=O)N3CCN(C(=O)C4CC4)CC3)nc3cccnc32)cc1` here?
Answer: inactive

Question: With `O=C(CCCn1cncn1)N1CCCC(CCc2ccccc2C(F)(F)F)C1` (centres undefined) as the molecule, how does the Potency read?
Answer: inconclusive: 89.1 µM [inhibitor, partial curve, poor fit]

Question: With `COc1cc(NC(=O)C[C@H]2NC(=O)c3ccccc3NC2=O)ccc1-n1nc(C)cc1C` as the molecule, how does the Potency read?
Answer: inactive

Question: With `c1cncc(Nc2cc3c(cn2)CN(CC2CCCCC2)CCN3)c1` as the molecule, how does the Potency read?
Answer: inconclusive: 44.7 µM [inhibitor, full curve]

Question: Which Potency does the source give for `COc1ccc(CNC(=O)[C@@H]2CCC[C@@H](NC(=O)c3ccccc3)CN(C)C(=O)C2)cc1` here?
Answer: inactive

Question: With `Cc1nn(C)c(C)c1CCC(=O)N[C@@H]1CN(Cc2ccccc2)C[C@H]1CN(C)C` as the molecule, how does the Potency read?
Answer: inactive

Question: For `CN1C[C@@H]2C[C@@H](C(N)=O)N(C(=O)OCC(C)(C)C)c3cccc(c32)C1=O`, which Potency is on record?
Answer: inconclusive: 28.2 µM [inhibitor, partial curve]

Question: For `Clc1cccc(CN2CCOC[C@H](Oc3ccccc3)C2)c1`, which Potency is on record?
Answer: inconclusive: 112 µM [inhibitor, single point]

Question: Which Potency does the source give for `COc1ccccc1C(=O)N1CCC(C(NC(=O)c2ccc(C)cc2)C(=O)N2CCCCC2)CC1` (centres undefined) here?
Answer: inactive

Question: For `O=C1CC(c2cn[nH]c2C(=O)O)c2c(n[nH]c2-c2cccs2)N1` (centres undefined), which Potency is on record?
Answer: inactive

Question: Which Potency does the source give for `CN(CCc1ccccn1)c1ccc(-c2nc(COc3ccccc3)no2)cn1` here?
Answer: inconclusive: 56.2 µM [inhibitor, partial curve, poor fit]

Question: For `O=C(NCc1ccccn1)C1c2ccccc2C(=O)N(Cc2ccccc2)C12CCCC2` (centres undefined), which Potency is on record?
Answer: inconclusive: 70.8 µM [inhibitor, single point]

Question: For `O=C(NCC1CCN(c2cc(-c3ccccc3)[nH]n2)CC1)c1ccc2nc[nH]c2c1`, which Potency is on record?
Answer: inconclusive: 44.7 µM [inhibitor, partial curve, poor fit]

Question: For `COc1ccc(C(=O)N2CCCCCCNC(=O)[C@@H]3C[C@@H](c4nc(-c5cccnc5)no4)C[C@@H]32)cc1`, which Potency is on record?
Answer: inconclusive: 44.7 µM [inhibitor, partial curve, poor fit]

Question: With `CCc1ccccc1S(=O)(=O)Nc1cccn2nc(C(C)C)nc12` as the molecule, how does the Potency read?
Answer: inconclusive: 50.1 µM [inhibitor, partial curve, poor fit]

Question: Which Potency does the source give for `CC(C)CN(CC1CN(C(=O)NCc2ccccc2)CCO1)C(=O)c1ccc2c(c1)OCO2` (centres undefined) here?
Answer: inconclusive: 50.1 µM [inhibitor, partial curve, poor fit]

Question: Which Potency does the source give for `COCCCNc1ncnc2c1CN(c1cccnc1)C(=O)CN2C` here?
Answer: inactive

Question: For `Cc1noc2c(N(C)C)cc(-c3ccc(F)cc3)nc12`, which Potency is on record?
Answer: inconclusive: 44.7 µM [inhibitor, full curve]

Question: Which Potency does the source give for `Fc1ccccc1-c1noc(-c2ncn3c2COC(c2ccccc2Cl)C3)n1` (centres undefined) here?
Answer: inconclusive: 50.1 µM [inhibitor, single point]

Question: For `O=C1NCc2ccccc2CC12CCCN2Cc1ccnc2ccccc12` (centres undefined), which Potency is on record?
Answer: inconclusive: 44.7 µM [inhibitor, partial curve]

Question: With `N[C@H]1CCN2C(=O)c3cc(-c4ccc5c(c4)OCO5)ccc3NC(=O)[C@H]12` as the molecule, how does the Potency read?
Answer: inconclusive: 112 µM [inhibitor, partial curve, poor fit]

Question: For `Cc1cc(C)cc(NC(=S)N[C@H]2CO[C@H]3[C@@H]2OC[C@H]3OC(=O)NC2CCCCC2)c1`, which Potency is on record?
Answer: inconclusive: 89.1 µM [inhibitor, partial curve]

Question: For `CC1=C[C@@H](CNC(=O)C2CC2)[C@H](C(C)C)C[C@H]1Cc1nc2ccncc2[nH]1`, which Potency is on record?
Answer: inconclusive: 56.2 µM [inhibitor, partial curve, poor fit]

Question: Which Potency does the source give for `O=C(NCCOc1ccccc1)c1ccc2c(c1)OCCN(CCC(F)(F)F)C2` here?
Answer: inactive

Question: For `CC(C)N1CCC(CCNC(=O)CCC[C@H]2NC[C@@H]3C[C@H]2CN(Cc2ccccc2)C3)CC1`, which Potency is on record?
Answer: inactive

Question: Which Potency does the source give for `COC(=O)N1CCCN(c2ccc3nnc(C4CC4)n3n2)CC1` here?
Answer: inconclusive: 100 µM [inhibitor, partial curve, poor fit]

Question: For `CN1CCN(Cc2nc(C3(O)CCN(Cc4ccc(C(F)(F)F)cc4)CC3)cs2)CC1`, which Potency is on record?
Answer: inconclusive: 50.1 µM [inhibitor, partial curve, poor fit]

Question: Which Potency does the source give for `O=C(COc1ccc(F)cc1)N1CC(Oc2cccc(-c3nc(-c4ccccc4)no3)c2)C1` here?
Answer: inconclusive: 28.2 µM [inhibitor, full curve]

Question: Which Potency does the source give for `Cn1cc(-c2cnc3[nH]cc(CC(=O)Nc4ccccc4Cl)c3c2)cn1` here?
Answer: inconclusive: 17.8 µM [inhibitor, full curve, poor fit]

Question: With `O=C(NC1CCCC1)C1CCCN1C(=O)c1cccc(-c2cccnc2)c1` (centres undefined) as the molecule, how does the Potency read?
Answer: inactive

Question: With `CC(C)c1noc(-c2cn(C3CCN(C(=O)c4ccsc4)CC3)nn2)n1` as the molecule, how does the Potency read?
Answer: inactive

Question: For `Cc1cc(C)cc(-c2ccc(CN3CCCC(N[S+](=O)([O-])c4ccccc4)C3)cc2)c1` (centres undefined), which Potency is on record?
Answer: inconclusive: 44.7 µM [inhibitor, partial curve, poor fit]

Question: For `COc1ccc(-c2noc(CC3CCN(C(=O)c4cc(Cl)ccc4OC)CC3)n2)cc1`, which Potency is on record?
Answer: inconclusive: 10 µM [inhibitor, full curve, poor fit]

Question: With `O=[S+]1([O-])c2cccnc2O[C@@H](COCc2ccccc2)CN1CCc1ccccc1` as the molecule, how does the Potency read?
Answer: inconclusive: 20 µM [inhibitor, partial curve, poor fit]

Question: With `CN(C)C(=O)c1nc(-c2ccc(S(C)(=O)=O)cc2)c2ccccn12` as the molecule, how does the Potency read?
Answer: inactive

Question: Which Potency does the source give for `CC(=O)Nc1ccc(CNC[C@H]2COCc3nc4cc(C)ccc4n32)cc1` here?
Answer: inconclusive: 44.7 µM [inhibitor, partial curve]

Question: With `O=C(NCCc1ccncc1)C1CN(C(=O)c2c(F)cccc2F)CC12CCOCC2` (centres undefined) as the molecule, how does the Potency read?
Answer: inactive

Question: With `Cc1ccc(C(CC(=O)Nc2ccc(F)cc2)c2c[nH]c3ccccc23)cc1` (centres undefined) as the molecule, how does the Potency read?
Answer: active: 44.7 µM

Question: For `COCCn1nc2n(c1=O)CCN(C(=O)Cc1ccc(OC)c(OC)c1)CC2`, which Potency is on record?
Answer: inactive

Question: With `O=S(=O)(c1ccc2c(c1)OCCO2)N1CCCC(c2nc(CCOCC3CC3)no2)C1` (centres undefined) as the molecule, how does the Potency read?
Answer: inactive

Question: With `COc1ccc(-c2cccc(C(=O)N3CCN(C(=O)C4CC4)CC3)c2)nn1` as the molecule, how does the Potency read?
Answer: inactive

Question: Which Potency does the source give for `Cc1cccc2c1O[C@H]1[C@H](C(=O)O)CN(C(=O)c3ncoc3-c3ccccc3)[C@@H]21` here?
Answer: inconclusive: 70.8 µM [inhibitor, single point]

Question: Which Potency does the source give for `c1ccc(-c2cnc3n2C[C@H](CNCc2cccs2)OC3)cc1` here?
Answer: inconclusive: 22.4 µM [inhibitor, full curve, poor fit]

Question: With `O=C1[C@H]2CN(Cc3cc(Cl)ccc3F)C[C@H]2C(=O)N1CCN1CCc2ccccc2C1` as the molecule, how does the Potency read?
Answer: inconclusive: 56.2 µM [inhibitor, partial curve, poor fit]

Question: Which Potency does the source give for `COc1ccc(-c2onc(C)c2C(=O)NCc2ccccc2)cc1` here?
Answer: inconclusive: 50.1 µM [inhibitor, partial curve, poor fit]

Question: For `CCc1cccc(NC(=O)Cn2cccc2-c2nc(-c3ccccc3)no2)c1`, which Potency is on record?
Answer: inconclusive: 35.5 µM [inhibitor, partial curve, poor fit]
